Changes are numbered by the printed parent chain. Results are given in words; binding and its absence hold for the method and conditions named. For part of these data: In cells and extracts the contact can be indirect. Some binding calls cover weakened binding; strength is not graded here. For part of these data: Sequences can lack the tags named with a protein.
What was measured:
[1] = biological target: T1, GST-REV3L 1974–1999 (human) (UniProt O60673); assay: pull-down; GST-fusion REV3L fragment, His-REV7 and Glutathione-Sepharose 4B beads, 4°C for 4 h in 500 μl of 0.1B; blot with anti-His and anti-GST; both purified
T1 sequence: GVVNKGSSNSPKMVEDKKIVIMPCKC

Chains of the proteins cited; added tags and fusions are not shown.
UniProt Q9UI95: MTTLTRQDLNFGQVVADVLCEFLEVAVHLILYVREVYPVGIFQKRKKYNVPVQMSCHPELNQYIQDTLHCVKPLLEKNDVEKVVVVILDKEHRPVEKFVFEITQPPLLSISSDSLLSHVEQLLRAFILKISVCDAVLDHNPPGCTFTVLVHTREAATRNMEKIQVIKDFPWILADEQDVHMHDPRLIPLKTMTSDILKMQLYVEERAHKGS

[2] = biological target: T2, GST-REV3L 1974–2025 (P1996A, P2001A) (human) (UniProt O60673); assay: as above
T2 sequence: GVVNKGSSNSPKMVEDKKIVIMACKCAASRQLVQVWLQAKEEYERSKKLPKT

[3] = biological target: T3, GFP-REV3L 1974–2075 (human) (UniProt O60673); assay: co-IP; anti-GFP agarose on lysates of 293T cells transfected with GFP-REV3L fragments; 4 h at 4°C; washed with 0.1B; blot for endogenous REV7
T3 sequence: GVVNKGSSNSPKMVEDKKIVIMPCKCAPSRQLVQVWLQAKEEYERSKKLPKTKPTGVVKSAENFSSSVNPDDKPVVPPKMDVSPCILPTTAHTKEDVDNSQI

[4] = biological target: T4, GFP-REV3L 1974–1999 (human) (UniProt O60673); assay: as above
T4 sequence: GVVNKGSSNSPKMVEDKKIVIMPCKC

[5] = biological target: T5, GFP-REV3L 1974–2025 (P1996A, P2001A) (human) (UniProt O60673); assay: as above
T5 sequence: T2 sequence

[6] = biological target: T6, GFP-REV3L 1974–2025 (human) (UniProt O60673); assay: as above
T6 sequence: T2 sequence with A23P, A28P

[7] = biological target: T7, FH-REV3L 1974–3130 (human) (UniProt O60673); assay: co-IP; FLAG antibody beads on lysates of 293T cells transfected with FH-REV3L constructs (48 h); 4 h at 4°C; washed with 0.1B; blot for endogenous REV7
T7 sequence: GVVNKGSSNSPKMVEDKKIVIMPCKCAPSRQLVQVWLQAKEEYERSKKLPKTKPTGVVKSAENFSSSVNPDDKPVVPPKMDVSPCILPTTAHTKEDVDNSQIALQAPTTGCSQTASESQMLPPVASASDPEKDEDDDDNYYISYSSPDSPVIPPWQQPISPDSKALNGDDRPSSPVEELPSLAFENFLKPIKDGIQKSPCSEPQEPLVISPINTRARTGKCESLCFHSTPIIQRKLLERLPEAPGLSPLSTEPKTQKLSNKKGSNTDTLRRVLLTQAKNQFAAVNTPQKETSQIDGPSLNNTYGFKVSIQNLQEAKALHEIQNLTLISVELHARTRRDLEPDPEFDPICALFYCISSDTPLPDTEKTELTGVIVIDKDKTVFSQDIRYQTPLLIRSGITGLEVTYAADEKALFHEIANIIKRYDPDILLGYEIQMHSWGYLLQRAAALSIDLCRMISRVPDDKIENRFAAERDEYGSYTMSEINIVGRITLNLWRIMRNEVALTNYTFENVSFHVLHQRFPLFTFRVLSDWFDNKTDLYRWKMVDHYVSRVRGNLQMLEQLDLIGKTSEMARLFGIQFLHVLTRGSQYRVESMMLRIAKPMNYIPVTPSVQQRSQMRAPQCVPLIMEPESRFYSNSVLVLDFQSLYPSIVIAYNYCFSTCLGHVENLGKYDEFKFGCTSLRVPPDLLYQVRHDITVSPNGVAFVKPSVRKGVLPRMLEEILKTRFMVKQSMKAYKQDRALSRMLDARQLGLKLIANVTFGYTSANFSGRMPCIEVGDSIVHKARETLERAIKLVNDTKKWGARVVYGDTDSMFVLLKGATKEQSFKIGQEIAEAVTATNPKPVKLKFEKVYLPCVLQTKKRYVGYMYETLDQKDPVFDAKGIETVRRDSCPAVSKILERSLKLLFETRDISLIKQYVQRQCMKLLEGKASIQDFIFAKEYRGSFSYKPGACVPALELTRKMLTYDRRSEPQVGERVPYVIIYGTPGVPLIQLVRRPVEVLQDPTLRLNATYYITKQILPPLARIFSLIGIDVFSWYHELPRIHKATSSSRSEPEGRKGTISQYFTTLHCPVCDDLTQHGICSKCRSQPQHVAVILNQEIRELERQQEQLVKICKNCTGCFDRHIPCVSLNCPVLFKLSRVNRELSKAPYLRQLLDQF

[8] = biological target: FH-REV3L (P1880A, P1885A, P1996A, P2001A) (human) (UniProt O60673); assay: as above
[9] = biological target: T8, FH-REV3L 2000–3130 (human) (UniProt O60673); assay: as above
T8 sequence: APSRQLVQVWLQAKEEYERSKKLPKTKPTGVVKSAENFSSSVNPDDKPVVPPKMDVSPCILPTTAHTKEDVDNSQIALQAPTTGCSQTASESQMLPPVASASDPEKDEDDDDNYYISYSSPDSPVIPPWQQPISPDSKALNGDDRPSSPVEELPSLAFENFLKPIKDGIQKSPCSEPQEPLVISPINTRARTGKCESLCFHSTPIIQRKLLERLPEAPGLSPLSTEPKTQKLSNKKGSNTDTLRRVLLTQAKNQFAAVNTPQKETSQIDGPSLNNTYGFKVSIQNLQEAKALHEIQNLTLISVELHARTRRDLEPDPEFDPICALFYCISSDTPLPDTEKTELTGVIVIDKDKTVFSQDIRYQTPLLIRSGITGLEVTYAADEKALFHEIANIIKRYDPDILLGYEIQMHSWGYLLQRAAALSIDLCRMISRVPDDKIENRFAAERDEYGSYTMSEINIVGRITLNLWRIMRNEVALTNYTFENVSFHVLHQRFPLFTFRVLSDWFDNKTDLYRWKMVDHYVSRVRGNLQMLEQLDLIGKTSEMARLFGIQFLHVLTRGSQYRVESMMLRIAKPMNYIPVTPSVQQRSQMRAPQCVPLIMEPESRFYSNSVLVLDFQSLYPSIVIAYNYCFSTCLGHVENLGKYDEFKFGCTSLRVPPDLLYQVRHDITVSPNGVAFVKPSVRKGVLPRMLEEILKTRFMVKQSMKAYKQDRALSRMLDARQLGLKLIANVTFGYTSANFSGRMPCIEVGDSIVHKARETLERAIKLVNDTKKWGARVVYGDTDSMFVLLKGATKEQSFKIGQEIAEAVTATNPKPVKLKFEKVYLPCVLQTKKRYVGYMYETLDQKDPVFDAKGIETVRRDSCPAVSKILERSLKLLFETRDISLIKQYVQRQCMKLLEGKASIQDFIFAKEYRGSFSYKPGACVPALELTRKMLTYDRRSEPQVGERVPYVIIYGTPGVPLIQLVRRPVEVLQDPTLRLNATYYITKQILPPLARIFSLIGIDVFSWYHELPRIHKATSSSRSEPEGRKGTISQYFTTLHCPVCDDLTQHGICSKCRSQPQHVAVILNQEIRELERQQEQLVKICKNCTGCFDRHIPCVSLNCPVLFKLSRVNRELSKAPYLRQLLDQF

[10] = biological target: FH-REV3L (P1996A, P2001A) (human) (UniProt O60673); assay: as above
[11] = biological target: FH-REV3L (P1880A, P1885A) (human) (UniProt O60673); assay: as above
[12] = biological target: FH-REV3L (N-terminal FLAG-HA tagged full-length human REV3L) (human) (UniProt O60673); assay: as above

Measured: binding

His-REV7 (from UniProt Q9UI95 1-211)
no binding: [1] | [2]

REV7 (MAD2L2), endogenous in human 293T cells (from UniProt Q9UI95 1-211)
no binding: [4] | [5] | [8] | [9]
not listed: [1] | [2]
binds: all other assays above

Source: article PMC4333420, “REV7 is essential for DNA damage tolerance via two REV3L binding sites in mammalian DNA polymerase ζ” (Nucleic Acids Research, 2015)
